# The supplement of paper PMC3334620
# Whole data set: some 33,000 sequences, median “E-score (-0.5 to 0.5)” near -0.016, cut for the highest 2% near 0.32. The list shows a part of the results.
# Target: T1, Stp1 (UniProt B3LFK1)
# T1 sequence: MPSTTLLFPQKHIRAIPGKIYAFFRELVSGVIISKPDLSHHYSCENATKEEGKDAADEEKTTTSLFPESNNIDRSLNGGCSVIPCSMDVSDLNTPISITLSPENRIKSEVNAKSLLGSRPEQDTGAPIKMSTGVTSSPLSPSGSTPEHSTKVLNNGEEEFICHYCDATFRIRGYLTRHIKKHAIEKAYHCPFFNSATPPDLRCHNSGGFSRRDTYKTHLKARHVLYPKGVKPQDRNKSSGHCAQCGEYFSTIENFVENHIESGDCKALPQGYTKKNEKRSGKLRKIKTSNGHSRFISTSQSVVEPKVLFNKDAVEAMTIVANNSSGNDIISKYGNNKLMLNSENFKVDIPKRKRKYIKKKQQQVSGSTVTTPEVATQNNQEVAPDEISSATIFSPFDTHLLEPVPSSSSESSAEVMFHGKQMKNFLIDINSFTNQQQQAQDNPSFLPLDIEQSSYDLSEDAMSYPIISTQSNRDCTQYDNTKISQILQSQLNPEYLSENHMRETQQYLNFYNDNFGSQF
# Experiment: PBM E-score (8-mer binding enrichment) (E-score (-0.5 to 0.5)); higher = stronger / more preferred TF binding; most listed sequences are background and not binding sites
# Settings: protein concentration: 200 nM; construct: GST-full length
# Outline: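 GST-tagged yeast TFs (full-length or DNA-binding domain) were made by PURExpress in vitro transcription/translation and applied at about 100-200 nM to universal all-10-mer Agilent arrays. The arrays were made double-stranded by primer extension, on fresh or once-stripped slides. Bound protein was detected with fluorescent anti-GST, and scans were normalised with masliner. Each ungapped eight-base word, pooled with its reverse complement, received an E-score (modified Wilcoxon-Mann-Whitney statistic) from the Universal PBM Analysis Suite.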
row,Sequence,PBM E-score
1,CTAAATTA,0.121
2,GCAGCCGC,0.281
3,GGTCGCCA,-0.223
4,AGTAGCGC,0.0214
5,GCTTGGAC,-0.0946
6,AATGCGAC,0.141
7,CACGGGAC,0.0861
8,GCCCAAGC,0.0308
9,CCCATGTC,-0.183
10,CTCCCTTA,-0.287
11,TAGAATCA,0.067
12,ATTAACCC,-0.00649
13,ACTAGTGA,-0.134
14,CCATCCTA,-0.0429
15,CGGGCCAC,-0.0797
16,CTAAGCAC,0.114
17,GACTAGGC,-0.0379
18,TCGAAAGA,-0.00504
19,AAGGTGCT,-0.0616
20,CCCAATGA,-0.139
21,CGATGTAA,0.0131
22,AACTGACC,-0.229
23,GGATCTAC,-0.105
24,ATACAAGA,0.00694
25,ACGCGTAG,0.0455

row,Sequence,PBM E-score
1,CATCACGG,0.091
2,AACAACCA,0.0647
3,GGTATGGA,-0.137
4,CTCCATCC,-0.161
5,ATACTGCC,0.114
6,GCTTAAAA,0.165
7,CATTTCCA,0.0507
8,GCGTCCAC,-0.124
9,AATTGGTG,0.106
10,ACGGCGTC,0.472
11,CGTATAAC,0.217
12,CGATATCC,0.0519
13,AATGAGCG,0.0869
14,ATAGCTTG,-0.0558
15,GTAAAATA,0.162
16,ACGCTGAT,0.0676
17,AACCGGCT,-0.13
18,GTCAGGAA,-0.152
19,CAGTGTCC,0.0396
20,CCACCTTA,-0.206
21,GTGTTGTA,0.109
22,CAACACCC,-0.2
23,CCTCACTC,-0.0347
24,CGGCGGTC,0.216
25,AGGCTAAC,-0.064

row,Sequence,PBM E-score
1,TAGTAAGA,-0.042
2,ATAATAAG,0.177
3,CTCGCCCC,-0.194
4,AGTATTAA,0.141
5,CTCGCAAG,0.0643
6,ACCCAGGC,-0.106
7,CCGCCGAA,0.216
8,CAACTGAA,-0.028
9,ATGGGGCA,0.212
10,GGAGATCA,-0.0865
11,CGCGGGAA,0.0432
12,GTGAGTTA,-0.0798
13,AGTGATGA,-0.127
14,AGCACCCC,-0.128
15,GGACATAA,-0.0555
16,CTCGGGGA,-0.286
17,AAGACATA,0.0549
18,AACAAGTC,0.0314
19,CTCCAGAA,0.0504
20,ACATCTAT,0.118
21,AGAAAGCG,0.122
22,ACTTCGGA,-0.0461
23,CCCTATGC,-0.156
24,CCTAAGGA,0.013
25,AGGCGACT,0.0881

row,Sequence,PBM E-score
1,ATTCCTCG,-0.0929
2,AACCGTAT,-0.0259
3,ACTTACAA,0.195
4,AAGAGTAA,0.192
5,CAACACCG,0.0621
6,CTATAGTC,-0.305
7,CTTACTCC,-0.0284
8,GTGGCAAC,0.216
9,ATGGGTAA,-0.00955
10,CCGCCCCA,0.109
11,AGTGTCTA,-0.0646
12,CGTAATCA,0.213
13,ACTCCCCA,-0.21
14,AATAGCGG,0.0188
15,GAGTATTA,0.17
16,GCAGAGTA,-0.182
17,CCTTCGTC,-0.112
18,CTCCGCCC,-0.192
19,GAGATTGC,-0.101
20,AGCGTAGC,-0.138
21,ATTGAAGG,-0.159
22,CCTGTGAC,-0.203
23,CCGGCATC,-0.0881
24,AAGCTGAC,-0.176
25,CAAACGGC,0.459

row,Sequence,PBM E-score
1,ACCTGAGA,-0.149
2,AGCCCGCA,-0.0688
3,AATGATTC,-0.0322
4,CCCTCTAC,-0.256
5,AAATGCCG,0.443
6,CCGAACCA,-0.0367
7,TCGGAGCA,-0.154
8,AACCACTG,-0.0129
9,AAAAGGAC,0.0161
10,ACCGACCC,-0.123
11,ACCGCAGT,-0.27
12,GAGCCCGA,-0.0565
13,AAATTTGA,0.114
14,CTTACAAG,0.0909
15,GCGATTCC,0.155
16,ACATACCT,-0.0669
17,GTACTGAC,0.012
18,CGATCTTC,-0.0457
19,AACTACGG,-0.0064
20,AACGCTCT,-0.216
21,AGGAGGTC,-0.254
22,CAGCCCAG,-0.245
23,CCCCGTTA,-0.139
24,TATAGGGA,-0.174
25,GGCCCTAA,0.0628

row,Sequence,PBM E-score
1,CGGATCCG,-0.00053
2,TATTCCCA,-0.11
3,CAGAGTCA,-0.168
4,AGATGGTC,-0.14
5,GAGACTAA,-0.0418
6,GCCGCGGA,0.343
7,CTAGTCAG,-0.176
8,CACCCGCG,0.0867
9,CGGGCAGC,-0.0936
10,AGCCGTTA,0.159
11,GCGGGTCA,-0.0965
12,ACTAACAC,0.103
13,AGTTAAGC,0.112
14,CTAATGAA,0.176
15,AAAGATAG,-0.196
16,AACGCATC,-0.145
17,AAGTCTCA,-0.256
18,CTTGGAGA,-0.0579
19,CTTTTGAA,0.108
20,CCTAATCG,0.0111
21,CGCGAAAA,0.239
22,CGGTGCTC,-0.056
23,AACGGAAA,0.0889
24,CAGGCCCG,-0.294
25,ACATACTG,-0.131

row,Sequence,PBM E-score
1,CACTCACG,0.0515
2,ATAATACG,0.122
3,GACTCATA,-0.196
4,AGAAATCG,0.0541
5,TCGCGTAA,0.235
6,CGGCGCTC,0.427
7,CTGATACC,-0.0583
8,GTCCAGCA,-0.167
9,CTTCTCCC,-0.277
10,AGTCTCGA,-0.171
11,CAGTGTAA,0.117
12,GGCACAAA,0.374
13,GACAAAGA,0.0251
14,GGACCCAC,-0.128
15,CACGAGCG,0.0362
16,CAGGTCTA,-0.224
17,GAGGATGA,-0.106
18,AGACCATC,-0.131
19,AACCATTA,0.123
20,AGGAGCTC,-0.213
21,CCGGTCTA,-0.093
22,CTACGACC,-0.123
